Measured values reported in the supplement of paper PMC8728848.
This is one part of the list.

Key:
Test in all cases: glycan array binding signal (z-score within array); higher = stronger binding
Conditions in all cases: glycan notation: IUPAC condensed, linker removed
Fuc(a1-4)GlcNAc = target: Fuc(a1-4)GlcNAc
Method in brief: (§1)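 Glycan array data came from 3228 arrays in the Consortium for Functional Glycomics database, and only arrays with an available protein sequence were kept. Glycan names were put into IUPAC-condensed notation, and columns mapping to the same glycan were averaged. The binding signal is a within-array Z-score, averaged across arrays of one protein sequence run at different concentrations or buffers and across linkers. A negative Z-score can be read as non-binding.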

Fuc(b1-3)GlcNAc = target: Fuc(b1-3)GlcNAc
Method in brief: as §1

Gal(a1-2)Gal = target: Gal(a1-2)Gal
Method in brief: as §1

Gal(a1-3)Gal = target: Gal(a1-3)Gal
Method in brief: as §1

Gal(a1-3)Gal(b1-3)GlcNAc = target: Gal(a1-3)Gal(b1-3)GlcNAc
Method in brief: as §1

[1] = target: Gal(a1-3)Gal(b1-3)GlcNAc(b1-2)Man
Method in brief: as §1

[2] = target: Gal(a1-3)Gal(b1-3)GlcNAc(b1-2)Man(a1-3)[Gal(a1-3)Gal(b1-3)GlcNAc(b1-2)Man(a1-6)]Man(b1-4)GlcNAc(b1-4)GlcNAc
Method in brief: as §1

[3] = target: Gal(a1-3)Gal(b1-3)GlcNAc(b1-3)GalNAc
Method in brief: as §1

[4] = target: Gal(a1-3)Gal(b1-3)GlcNAc(b1-6)GalNAc
Method in brief: as §1

[5] = target: Gal(a1-3)Gal(b1-3)[Fuc(a1-4)]GlcNAc(b1-2)Man(a1-3)[Gal(a1-3)Gal(b1-3)[Fuc(a1-4)]GlcNAc(b1-2)Man(a1-6)]Man(b1-4)GlcNAc(b1-4)GlcNAc
Method in brief: as §1

Gal(a1-3)Gal(b1-4)Glc = target: Gal(a1-3)Gal(b1-4)Glc
Method in brief: as §1

Gal(a1-3)Gal(b1-4)GlcNAc = target: Gal(a1-3)Gal(b1-4)GlcNAc
Method in brief: as §1

[6] = target: Gal(a1-3)Gal(b1-4)GlcNAc(b1-2)Man
Method in brief: as §1

[7] = target: Gal(a1-3)Gal(b1-4)GlcNAc(b1-2)Man(a1-3)[Gal(a1-3)Gal(b1-4)GlcNAc(b1-2)Man(a1-6)]Man(b1-4)GlcNAc(b1-4)GlcNAc
Method in brief: as §1

[8] = target: Gal(a1-3)Gal(b1-4)GlcNAc(b1-3)GalNAc
Method in brief: as §1

[9] = target: Gal(a1-3)Gal(b1-4)GlcNAc(b1-6)GalNAc
Method in brief: as §1

[10] = target: Gal(a1-3)Gal(b1-4)[Fuc(a1-3)]GlcNAc
Method in brief: as §1

[11] = target: Gal(a1-3)Gal(b1-4)[Fuc(a1-3)]GlcNAc(b1-2)Man(a1-3)[Gal(a1-3)Gal(b1-4)[Fuc(a1-3)]GlcNAc(b1-2)Man(a1-6)]Man(b1-4)GlcNAc(b1-4)GlcNAc
Method in brief: as §1

Gal(a1-3)GalNAc = target: Gal(a1-3)GalNAc
Method in brief: as §1

[12] = target: Gal(a1-3)[Gal(a1-4)]Gal(b1-4)GlcNAc
Method in brief: as §1

[13] = target: Gal(a1-4)Gal(b1-3)GlcNAc(b1-2)Man(a1-3)[Gal(a1-4)Gal(b1-3)GlcNAc(b1-2)Man(a1-6)]Man(b1-4)GlcNAc(b1-4)GlcNAc
Method in brief: as §1

Gal(a1-4)Gal(b1-4)Glc = target: Gal(a1-4)Gal(b1-4)Glc
Method in brief: as §1

Gal(a1-4)Gal(b1-4)GlcNAc = target: Gal(a1-4)Gal(b1-4)GlcNAc
Method in brief: as §1

[14] = target: Gal(a1-4)Gal(b1-4)GlcNAc(b1-2)Man(a1-3)[Gal(a1-4)Gal(b1-4)GlcNAc(b1-2)Man(a1-6)]Man(b1-4)GlcNAc(b1-4)GlcNAc
Method in brief: as §1

[15] = target: Gal(a1-4)Gal(b1-4)GlcNAc(b1-3)Gal(b1-4)Glc
Method in brief: as §1

Gal(a1-4)GlcNAc = target: Gal(a1-4)GlcNAc
Method in brief: as §1

Gal(a1-6)Glc = target: Gal(a1-6)Glc
Method in brief: as §1

Gal(b1-2)Gal = target: Gal(b1-2)Gal
Method in brief: as §1

Gal(b1-3)Gal = target: Gal(b1-3)Gal
Method in brief: as §1

Gal(b1-3)Gal(b1-4)GlcNAc = target: Gal(b1-3)Gal(b1-4)GlcNAc
Method in brief: as §1

[16] = target: Gal(b1-3)Gal(b1-4)GlcNAc(b1-2)Man(a1-3)[Gal(b1-3)Gal(b1-4)GlcNAc(b1-2)Man(a1-6)]Man(b1-4)GlcNAc(b1-4)GlcNAc
Method in brief: as §1

Gal(b1-3)GalNAc = target: Gal(b1-3)GalNAc
Method in brief: as §1

[17] = target: Gal(b1-3)GalNAc(a1-3)[Fuc(a1-2)]Gal(b1-4)Glc
Method in brief: as §1

[18] = target: Gal(b1-3)GalNAc(a1-3)[Fuc(a1-2)]Gal(b1-4)GlcNAc
Method in brief: as §1

Gal(b1-3)GalNAc(b1-3)Gal = target: Gal(b1-3)GalNAc(b1-3)Gal
Method in brief: as §1

[19] = target: Gal(b1-3)GalNAc(b1-3)Gal(a1-4)Gal(b1-4)Glc
Method in brief: as §1

[20] = target: Gal(b1-3)GalNAc(b1-4)Gal(b1-4)Glc
Method in brief: as §1

[21] = target: Gal(b1-3)GalNAc(b1-4)[Neu5Ac(a2-3)]Gal(b1-4)Glc
Method in brief: as §1

B1: Gal 9 (Homo sapiens), O00182 (protein)
chain: MAFSGSQAPYLSPAVPFSGTIQGGLQDGLQITVNGTVLSSSGTRFAVNFQTGFSGNDIAFHFNPRFEDGGYVVCNTRQNGSWGPEERKTHMPFQKGMPFDLCFLVQSSDFKVMVNGILFVQYFHRVPFHRVDTISVNGSVQLSYISFQNPRTVPVQPAFSTVPFSQPVCFPPRPRGRRQKPPGVWPANPAPITQTVIHTVQSAPGQMFSTPAIPPMMYPHPAYPMPFITTILGGLYPSKSILLSGTVLPSAQRFHINLCSGNHIAFHLNPRFDENAVVRNTQIDNSWGSEERSLPRKMPFVRGQSFSVWILCEAHCLKVAVDGQHLFEYYHRLRNLPTINRLEVGGDIQLTHVQT
**Q.** B1 was tested. Which “glycan array binding signal (z-score)” value (Fuc(a1-4)GlcNAc) did it give?
**A.** -0.307

**Q.** And the “glycan array binding signal (z-score)” value (Fuc(b1-3)GlcNAc)?
**A.** -0.313

**Q.** And the “glycan array binding signal (z-score)” value (Gal(a1-2)Gal)?
**A.** -0.313

**Q.** And the “glycan array binding signal (z-score)” value (Gal(a1-3)Gal)?
**A.** -0.306

**Q.** What about the “glycan array binding signal (z-score)” value (Gal(a1-3)Gal(b1-3)GlcNAc) of the same binder?
**A.** -0.292

**Q.** And the “glycan array binding signal (z-score)” value [1]?
**A.** -0.279

**Q.** What about the “glycan array binding signal (z-score)” value [2] of the same binder?
**A.** -0.28

**Q.** And the “glycan array binding signal (z-score)” value [3]?
**A.** -0.297

**Q.** And the “glycan array binding signal (z-score)” value [4]?
**A.** -0.279

**Q.** And the “glycan array binding signal (z-score)” value [5]?
**A.** -0.26

**Q.** And the “glycan array binding signal (z-score)” value (Gal(a1-3)Gal(b1-4)Glc)?
**A.** -0.272

**Q.** And the “glycan array binding signal (z-score)” value (Gal(a1-3)Gal(b1-4)GlcNAc)?
**A.** 0.085

**Q.** And the “glycan array binding signal (z-score)” value [6]?
**A.** -0.255

**Q.** And the “glycan array binding signal (z-score)” value [7]?
**A.** -0.175

**Q.** And the “glycan array binding signal (z-score)” value [8]?
**A.** 0.023

**Q.** What about the “glycan array binding signal (z-score)” value [9] of the same binder?
**A.** -0.293

**Q.** What about the “glycan array binding signal (z-score)” value [10] of the same binder?
**A.** -0.322

**Q.** What about the “glycan array binding signal (z-score)” value [11] of the same binder?
**A.** -0.304

**Q.** And the “glycan array binding signal (z-score)” value (Gal(a1-3)GalNAc)?
**A.** -0.304

**Q.** And the “glycan array binding signal (z-score)” value [12]?
**A.** -0.31

**Q.** And the “glycan array binding signal (z-score)” value [13]?
**A.** -0.285

**Q.** What about the “glycan array binding signal (z-score)” value (Gal(a1-4)Gal(b1-4)Glc) of the same binder?
**A.** -0.287

**Q.** What about the “glycan array binding signal (z-score)” value (Gal(a1-4)Gal(b1-4)GlcNAc) of the same binder?
**A.** -0.299

**Q.** And the “glycan array binding signal (z-score)” value [14]?
**A.** -0.256

**Q.** And the “glycan array binding signal (z-score)” value [15]?
**A.** 0.18

**Q.** And the “glycan array binding signal (z-score)” value (Gal(a1-4)GlcNAc)?
**A.** -0.31

**Q.** And the “glycan array binding signal (z-score)” value (Gal(a1-6)Glc)?
**A.** -0.316

**Q.** And the “glycan array binding signal (z-score)” value (Gal(b1-2)Gal)?
**A.** -0.335

**Q.** What about the “glycan array binding signal (z-score)” value (Gal(b1-3)Gal) of the same binder?
**A.** -0.321

**Q.** What about the “glycan array binding signal (z-score)” value (Gal(b1-3)Gal(b1-4)GlcNAc) of the same binder?
**A.** 1.07

**Q.** And the “glycan array binding signal (z-score)” value [16]?
**A.** 6

**Q.** And the “glycan array binding signal (z-score)” value (Gal(b1-3)GalNAc)?
**A.** -0.317

**Q.** And the “glycan array binding signal (z-score)” value [17]?
**A.** 0.067

**Q.** What about the “glycan array binding signal (z-score)” value [18] of the same binder?
**A.** 0.628

**Q.** And the “glycan array binding signal (z-score)” value (Gal(b1-3)GalNAc(b1-3)Gal)?
**A.** -0.292

**Q.** And the “glycan array binding signal (z-score)” value [19]?
**A.** -0.318

**Q.** And the “glycan array binding signal (z-score)” value [20]?
**A.** -0.284

**Q.** What about the “glycan array binding signal (z-score)” value [21] of the same binder?
**A.** -0.319
